The list shows a part of the results.
B1: Q9UKT9 (peptide)
chain: FGCPVCGAQFTQKGNLLRHIKL
B2: Q9UKT9 (peptide)
chain: FMCDICGAHFTQKGNLLRHIKL
B3: Q9UKT9 (peptide)
chain: FACEVCGAPFTQKGNLLRHIKL
B4: Q9UKT9 (peptide)
chain: FRCEVCGARFTQKGNLLRHIKL
B5: Q9UKT9 (peptide)
chain: FICEQCGAKFTQKGNLLRHIKL
B6: Q9UKT9 (peptide)
chain: FFCDVCGAQFTQKGNLLRHIKL
B7: Q9UKT9 (peptide)
chain: LLCNQCGFICTQKGNLLRHIKL
B8: Q9UKT9 (peptide)
chain: FGCNQCGRLFTQKGNLLRHIKL
B9: Q9UKT9 (peptide)
chain: FKCNICGARFTQKGNLLRHIKL
B10: Q9UKT9 (peptide)
chain: FFCDICGACFTQKGNLLRHIKL
B11: Q9UKT9 (peptide)
chain: FFCDQCGAQFTQKGNLLRHIKL
B12: Q9UKT9 (peptide)
chain: FYCPICGACFTQKGNLLRHIKL
B13: Q9UKT9 (peptide)
chain: LYCNQCGFECTQKGNLLRHIKL
B14: Q9UKT9 (peptide)
chain: LACPICGFDCTQKGNLLRHIKL
B15: Q9UKT9 (peptide)
chain: FNCDVCGARFTQKGNLLRHIKL
B16: Q9UKT9 (peptide)
chain: FECNICGAAFTQKGNLLRHIKL
B17: Q9UKT9 (peptide)
chain: FVCDVCGAHFTQKGNLLRHIKL
B18: Q9UKT9 (peptide)
chain: LICEICGFTCTQKGNLLRHIKL
B19: Q9UKT9 (peptide)
chain: FRCNVCGAIFTQKGNLLRHIKL
B20: Q9UKT9 (peptide)
chain: LQCEICGFCCTQKGNLLRHIKL
B21: Q9UKT9 (peptide)
chain: FRCPQCGAYFTQKGNLLRHIKL
B22: Q9UKT9 (peptide)
chain: FSCDVCGACFTQKGNLLRHIKL
B23: Q9UKT9 (peptide)
chain: FNCPICGAAFTQKGNLLRHIKL
B24: Q9UKT9 (peptide)
chain: FWCEVCGASFTQKGNLLRHIKL
B25: Q9UKT9 (peptide)
chain: FVCDQCGAPFTQKGNLLRHIKL
B26: Q9UKT9 (peptide)
chain: LFCNQCGFFCTQKGNLLRHIKL
B27: Q9UKT9 (peptide)
chain: FACEICGHMFTQKGNLLRHIKL
B28: Q9UKT9 (peptide)
chain: FLCPQCGAWFTQKGNLLRHIKL
B29: Q9UKT9 (peptide)
chain: FDCEQCGAYFTQKGNLLRHIKL
B30: Q9UKT9 (peptide)
chain: LWCEICGFYCTQKGNLLRHIKL
B31: Q9UKT9 (peptide)
chain: FQCPICGRKFTQKGNLLRHIKL
B32: Q9UKT9 (peptide)
chain: LCCPICGFACTQKGNLLRHIKL

These sequences were tested against no compound (DMSO) (assay: log2 fold change of degron read counts, EGFP-low vs EGFP+ sorted cells; higher = lower degron-EGFP level without compound (poor expression or instability)). Details: compound: DMSO control; 18 h.
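Also: jurkat cells carrying a lentiviral library of mutant zinc finger degrons fused to EGFP plus mCherry, mCherry+ cells FACS sorted, degron abundance counted by next-generation sequencing.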

Row | Sequence | log2 fold change of degron read counts
1 | B1 | -0.234
2 | B2 | -1.19
3 | B3 | -0.509
4 | B4 | -1.43
5 | B5 | -1.65
6 | B6 | -1.51
7 | B7 | 1.34
8 | B8 | 0.845
9 | B9 | -0.509
10 | B10 | -0.64
11 | B11 | -1.38
12 | B12 | 0.666
13 | B13 | -0.27
14 | B14 | 0.642
15 | B15 | -0.0975
16 | B16 | -0.579

Row | Sequence | log2 fold change of degron read counts
17 | B17 | -1.3
18 | B18 | -0.382
19 | B19 | -0.294
20 | B20 | -0.289
21 | B21 | 0.282
22 | B22 | -1.41
23 | B23 | -0.622
24 | B24 | -1.85
25 | B25 | -0.716
26 | B26 | 2.5
27 | B27 | -1.34
28 | B28 | 1.07
29 | B29 | -0.28
30 | B30 | 2.35
31 | B31 | -0.327
32 | B32 | 0.865
